The values below come from PubChem BioAssay AID1956 (SRMLSC, 2009).

By viability is commonly meant a read-out of living cells in per cent, often relative to untreated cells.

The other results are listed elsewhere or left out. These are further read-outs of the screen, such as a control signal, another cell line or another target. No call is given for them.

The experiment can be described thus: compounds boosting herpes simplex virus growth – fold increase, host cell viability (AID 1956). Also: tested in PC3 cells. The settings on record: HSV replication augmentation in cells; fold increase: measured here: primary screen fold increase 10 uM, at 10 µM, stronger effect = higher value; viability: measured here: host cell viability series, at 25 µM, stronger effect = lower value.
For `CC1=NN(c2ccc(C)c(C)c2)C(=O)C1C(c1cccc(O)c1)C1C(=O)N(c2ccc(C)c(C)c2)N=C1C` (stereo not given), the fold increase was determined as 1.23.

With `COc1ccc(Cl)cc1N1Cc2ccccc2C1`, the fold increase worked out at 1.18.

With `O=C1CNC(=S)N1CCc1ccc(Cl)cc1`, the fold increase turned out to be 1.39 and the viability came out at 101%.

As to `CCOC(=O)c1c(NC(=O)CCC(=O)O)sc2c1CC(C)(C)OC2`, the fold increase was 1.52 and the viability is 94.1%.

On to `COc1ccc(OC2C(=O)N(Cc3ccc4c(c3)OCO4)C2c2sccc2C)cc1` (stereo not given), for which the fold increase came to 1.4 and the viability is 73%.

On to `CC(OC(=O)c1c2c(nc3ccccc13)/C(=C\c1ccc3c(c1)OCO3)CCC2)C(=O)Nc1ccc(S(N)(=O)=O)cc1` (stereo not given), for which the fold increase is 3.06.

The compound `CN1CCN(/N=C/c2ccc(-c3ccc([N+](=O)[O-])cc3Cl)o2)CC1` yielded a fold increase of 2.59.

In the case of `Cc1ccc(S(=O)(=O)NC2(C(F)(F)F)NC(=O)N(CCc3ccccc3)C2=O)cc1` (stereo not given), the fold increase came out at 1.32.

In the case of `O=C(CSc1nnc(C2COc3ccccc3O2)o1)N1CCCCC1` (stereo not given), the fold increase was found to be 1.45 and the viability is 98.1%.

As for `NS(=O)(=O)c1ccc(NC(=O)COC(=O)c2c3c(nc4ccccc24)/C(=C\c2ccc4c(c2)OCO4)CCC3)cc1`, the fold increase stood at 1.47 and the viability amounted to 71.3%.

Turning to `CN(Cc1ncc[nH]1)C(=O)CC1C(=O)NCCN1Cc1c(F)cccc1Cl` (stereo not given), the fold increase was found to be 1.47 and the viability was 101%.

In the case of `COc1cc(-c2cc(OC)c3c(C)oc(C)c3c(=O)c2)ccc1O`, the fold increase is 2.06 and the viability came out at 78.5%.

For `Cc1nnc(SCC(=O)Nc2ccc3c(c2)OCCO3)s1`, the fold increase was found to be 1.33 and the viability came to 98.9%.

For `CCOC(=O)Cc1csc(NC(=O)Nc2cccc(OC)c2)n1`, the fold increase came out at 1.36 and the viability was found to be 95.8%.

Regarding `COc1ccccc1CNC(=O)Cn1cc2c(n1)CCCC2`, the fold increase is 1.43 and the viability worked out at 103%.

As to `Cc1ccc(C(=O)NN2C(=O)/C(=C/c3cn(C)c4ccccc34)SC2=S)cc1`, the fold increase was determined as 1.87 and the viability was 99.2%.

Compound `C/C(=C\C(=S)Nc1ccccc1)Nc1ccccc1` displayed a fold increase of 1.32.

With `CCSc1nnc(-c2sc3nnc(-c4ccccc4)c(-c4ccccc4)c3c2N)o1`, the fold increase came out at 2.22 and the viability worked out at 92.6%.

In the case of `Cc1ccc(Cn2c(=N)n(CC(O)c3ccco3)c3ccccc32)cc1` (stereo not given), the fold increase was found to be 1.74 and the viability is 64.4%.

Regarding `CCN(CC)CCNC(=O)c1ccc(CS(=O)(=O)c2ccc(Br)cc2)o1`, the fold increase was 1.39 and the viability was determined as 99.5%.

Consider `O=C1Nc2ccccc2/C1=C/c1cnc(-c2ccccc2)[nH]1`, for which the fold increase was 7.97 and the viability worked out at 98.8%.

Regarding `Cc1nn(-c2ccccc2)c(N2CCCC2)c1/C=N/n1cnc2scc(-c3ccccc3)c2c1=O`, the fold increase stood at 1.1.

`Cc1ccc(NCc2nnc(SCC(=O)O)n2Cc2ccccc2)cc1Cl` showed a fold increase of 1.38.

With `CCOc1cc(/C=C2/SC(=S)N(CC3CCCO3)C2=O)ccc1O` (stereo not given), the fold increase came to 5.32 and the viability worked out at 92%.

On to `Cc1nc(SCC(=O)NCCc2ccc(Cl)cc2)nc(C)c1C`, for which the fold increase worked out at 1.45 and the viability came to 92.5%.

As to `CC(C)OC(=O)CC(=O)CSc1nc(-c2ccc(F)cc2)cc(-c2ccccc2)c1C#N`, the fold increase was 1.33 and the viability came out at 93.5%.

As to `Cc1cc(S(=O)(=O)NC2CCCCC2)c(C)s1`, the fold increase amounted to 1.33 and the viability worked out at 98.1%.

As to `Nc1c(C(=O)C2CC2)sc2nc(-c3ccccc3)cc(C(F)(F)F)c12`, the fold increase turned out to be 2.29 and the viability was determined as 97.5%.

Consider `CCOC(=O)N1CCC(NC(=O)CCCC(=O)O)CC1`, for which the fold increase is 1.39 and the viability is 99.5%.

`CN1/C(=C\C=C(/C#N)C(=O)Nc2ccccc2F)C(C)(C)c2ccccc21`: the fold increase stood at 2.24 and the viability was found to be 95.2%.

Regarding `CCOc1cc(/C=C2\SC(=S)N(N3CCOCC3)C2=O)ccc1O`, the fold increase turned out to be 2.02 and the viability came out at 92.3%.

Consider `COc1cc(/C=C(\C#N)c2nc3ccccc3[nH]2)cc(Br)c1OCc1ccc(F)cc1`, for which the fold increase worked out at 1.28.

With `O=c1[nH]c(S)c(/C=C2\C=Nc3ccccc32)s1`, the fold increase amounted to 1.46 and the viability came out at 98.8%.

In the case of `Cc1cc(C)c[n+](-c2nc3ccccc3nc2[N-]S(=O)(=O)c2ccc(Cl)cc2)c1`, the fold increase amounted to 1.42 and the viability came out at 102%.

`Cc1cc(-c2n[nH]c(=S)n2/N=C/c2ccccc2[N+](=O)[O-])n[nH]1`: the fold increase was determined as 1.44 and the viability is 103%.

With `O=C(COc1ccccc1-c1ccccc1)NCc1cccc(Cl)c1`, the fold increase came out at 1.32.

Regarding `CCN(CC)c1ccc2cc(C#N)c(=O)oc2c1`, the fold increase came out at 2.63 and the viability was determined as 102%.

Regarding `CN(Cc1ccccc1)C(=O)c1ccccc1NC(=O)c1ccccc1`, the fold increase came to 1.49 and the viability was 104%.

In turn, `CCOc1ccccc1C1CC(c2cccs2)=NN1S(C)(=O)=O` (stereo not given) had a fold increase of 1.35.

Turning to `Cc1cccc(NC(=O)CN2C(=O)N/C(=C/c3ccc(C)s3)C2=O)c1`, the fold increase came to 1.36.

As to `CCOC(=O)c1c(NC(=S)Nc2ccccc2)sc2c1CC(C)(C)SC2`, the fold increase stood at 2.04 and the viability was 91.5%.

As to `N#C/C(=C/c1ccc(N2CCOCC2)o1)C(=O)Nc1ccccc1`, the fold increase turned out to be 5.34 and the viability was 93.8%.

Turning to `COc1cccc(/C=N/n2c(SC)nnc2-c2ccccc2)c1O`, the fold increase was determined as 2.62 and the viability is 71%.

`O=C(Nc1ccccc1F)C(=Cc1sc(N2CCOCC2)nc1-c1ccccc1)C(=O)Nc1ccccc1F` registered a fold increase of 1.57.

With `Cc1cc(C(=O)NC(C)c2ccncc2)cs1` (stereo not given), the fold increase was 1.32 and the viability stood at 93.2%.

Take `N#C/C(=C\c1ccc(F)cc1)c1nc(-c2ccco2)cs1`: the fold increase was 1.35 and the viability worked out at 97.6%.

Regarding `O=[N+]([O-])c1ccc(N/N=C/c2cn(Cc3ccc(F)cc3)c3ccccc23)nc1`, the fold increase came out at 1.76 and the viability was 74.2%.

Turning to `CCOC(=O)CC(=O)CSc1nc2ccc(C)cc2cc1C#N`, the fold increase was found to be 1.42 and the viability is 75.9%.

For the compound `Cc1ccc(-c2nc(NC(=O)CSc3nnc4scc(-c5ccccc5)n34)ns2)cc1`, the fold increase was found to be 1.34 and the viability was found to be 77.3%.

In turn, `CCN(CC)c1ccc(/C=C(\C#N)c2nc(-c3cccs3)c(NC(C)=O)s2)cc1` showed a fold increase of 9.42.

For the compound `CCCCC(=O)Nc1ccc(C(=O)Nc2ccc(OC)cc2[N+](=O)[O-])cc1`, the fold increase was found to be 1.72 and the viability is 99.3%.

As for `CCOC(=O)/C(=C\C=C1/Sc2ccccc2N1CC)C(C)=O`, the fold increase stood at 7.92 and the viability was 93%.

`CCCN1C(=O)/C(=C\C=C2/Sc3ccccc3N2CCO)SC1=S`: the fold increase worked out at 2.03 and the viability was determined as 86.1%.

With `CN(C)c1ccc(/C=C2\SC(=O)N(CCc3nnc(N)s3)C2=O)cc1`, the fold increase worked out at 1.67 and the viability was 88.2%.

With `Cc1ccc(NC(=O)/C=C/c2ccc([N+](=O)[O-])s2)c(C)c1`, the fold increase is 5.61 and the viability came to 14.8%.

Regarding `COC(=O)C1(C(=O)OC)NOC2C(=O)N(c3ccccc3)C(=O)C21` (stereo not given), the fold increase worked out at 1.44 and the viability came out at 92.5%.

Take `CCCn1c(N)c(N(CCOC)C(=O)/C=C/c2cccc(Cl)c2)c(=O)[nH]c1=O`: the fold increase is 1.38 and the viability is 99.9%.

Consider `CN(C)C=Nc1c(Br)cc(Br)c2nonc12`, for which the fold increase came to 5.38 and the viability is 96.8%.

For the compound `COc1ccc(Cl)cc1-c1n[nH]c(=S)n1C1CCCCC1`, the fold increase was found to be 1.24.

For the compound `COc1ccc(OC)c(-n2nnnc2SCC(=O)NCc2ccc3c(c2)OCO3)c1`, the fold increase came to 1.32 and the viability came out at 102%.
